According to patent publication US20250066451A1 (SWEDISH ORPHAN BIOVITRUM AB PUBL, published 2025):

T1: Human IL-1R-I-Fc (Creative BioMart cat. no. IL1RI-771H) (human, UniProt P14778 18-332, limits assumed)
T1 construct: Bought protein; also called hIL-1R-I-Fc; hIL-1RI-Fc; not shown: Fc part of the bought fusion
T1 sequence (looked up): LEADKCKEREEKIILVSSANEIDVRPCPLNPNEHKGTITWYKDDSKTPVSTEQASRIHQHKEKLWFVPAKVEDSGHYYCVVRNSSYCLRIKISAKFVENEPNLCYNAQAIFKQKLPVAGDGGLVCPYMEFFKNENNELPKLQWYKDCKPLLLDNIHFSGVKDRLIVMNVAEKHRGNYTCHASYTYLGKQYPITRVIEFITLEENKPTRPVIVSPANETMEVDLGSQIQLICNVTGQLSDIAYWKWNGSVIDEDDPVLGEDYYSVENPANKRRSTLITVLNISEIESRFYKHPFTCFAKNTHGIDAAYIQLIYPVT


Biological target: T1, Human IL-1R-I-Fc (Creative BioMart cat. …)
Test: ELISA titration; Z-ABD periplasmic extract, hIL-1R-I-Fc 100-0.01 nM

| Binder | EC50 [pM] |
| --- | --- |
| Z12920 as Z-ABD fusion (periplasmic extract) (designed binder) AQHDEALEVDAKYAKEAVYARDEIYLLPNLTRKQYTAFIRKLFDDPSQSSELLSEAKKLNDSQAPKVDYVLAEAKVLANRELDKYGVSDYYKNLINNAKTVEGVKALIDEILAALPYVPG | 6600 |
| Z12915 as Z-ABD fusion (periplasmic extract) (designed binder) AQHDEALEVDAKYAKEVKWAHHEIFQLPNLTRKQYTAFIVKLFDDPSQSSELLSEAKKLNDSQAPKVDYVLAEAKVLANRELDKYGVSDYYKNLINNAKTVEGVKALIDEILAALPYVPG | 4300 |
| Z12884 as Z-ABD fusion (periplasmic extract) (designed binder) AQHDEALEVDAKYAKEASLAQHEIFALPNLTRKQYTAFIRKLFDDPSQSSELLSEAKKLNDSQAPKVDYVLAEAKVLANRELDKYGVSDYYKNLINNAKTVEGVKALIDEILAALPYVPG | 640 |
| Z12891 as Z-ABD fusion (periplasmic extract) (designed binder) AQHDEALEVDAKYAKEQSQAYHEIFKLPNLTRRQYTAFIMKLLDDPSQSSELLSEAKKLNDSQAPKVDYVLAEAKVLANRELDKYGVSDYYKNLINNAKTVEGVKALIDEILAALPYVPG | 2200 |
| Z12941 as Z-ABD fusion (periplasmic extract) (designed binder) AQHDEALEVDAKYAKEVLYAYWEIFALPNLTRKQYTAFIRKLMDDPSQSSELLSEAKKLNDSQAPKVDYVLAEAKVLANRELDKYGVSDYYKNLINNAKTVEGVKALIDEILAALPYVPG | 460 |
| Z12905 as Z-ABD fusion (periplasmic extract) (designed binder) AQHDEALEVDAKYAKEARAAQGEIYALPNLTRRQYTAFIMKLLDDPSQSSELLSEAKKLNDSQAPKVDYVLAEAKVLANRELDKYGVSDYYKNLINNAKTVEGVKALIDEILAALPYVPG | 7300 |
| Z12933 as Z-ABD fusion (periplasmic extract) (designed binder) AQHDEALEVDAKYAKEAKTAQIEIYDLPNLTRRQYVAFIRKLLDDPSQSSELLSEAKKLNDSQAPKVDYVLAEAKVLANRELDKYGVSDYYKNLINNAKTVEGVKALIDEILAALPYVPG | 1500 |

Now those with a lower EC50, led by results:

| EC50 [pM] | Binder |
| --- | --- |
| 320 | Z12911 as Z-ABD fusion (periplasmic extract) (designed binder) AQHDEALEVDAKYAKEHEKAILEIFHLPNLTRRQYTAFIRKLLDDPSQSSELLSEAKKLNDSQAPKVDYVLAEAKVLANRELDKYGVSDYYKNLINNAKTVEGVKALIDEILAALPYVPG |
| 230 | Z12910 as Z-ABD fusion (periplasmic extract) (designed binder) AQHDEALEVDAKYAKEALSAQQEIFALPNLTRSQYTAFIRKLLDDPSQSSELLSEAKKLNDSQAPKVDYVLAEAKVLANRELDKYGVSDYYKNLINNAKTVEGVKALIDEILAALPYVPG |
| 390 | Z12964 as Z-ABD fusion (periplasmic extract) (designed binder) AQHDEALEVDAKYAKEAEDATMEIYNLPNLTRRQYVAFIIKLLDDPSQSSELLSEAKKLNDSQAPKVDYVLAEAKVLANRELDKYGVSDYYKNLINNAKTVEGVKALIDEILAALPYVPG |
| 390 | Z12912 as Z-ABD fusion (periplasmic extract) (designed binder) AQHDEALEVDAKYAKEALLAQQEIFALPNLTRRQYTAFIRKLLDDPSQSSELLSEAKKLNDSQAPKVDYVLAEAKVLANRELDKYGVSDYYKNLINNAKTVEGVKALIDEILAALPYVPG |
| 210 | Z12974 as Z-ABD fusion (periplasmic extract) (designed binder) AQHDEALEVDAKYAKEADHAQQEIFALPNLTRRQYTAFIIKLLDDPSQSSELLSEAKKLNDSQAPKVDYVLAEAKVLANRELDKYGVSDYYKNLINNAKTVEGVKALIDEILAALPYVPG |
